Reference: PubChem BioAssay AID602310 (National Center for Advancing Translational Sciences (NCATS), 2012)
About 310 (0.076%) of roughly 410,000 compounds were called active. Inconclusive results, whose numbers are uncertain, are shown with a selection of clear calls. The call rests on the fitted dose curve; in most records, active means well fitted curve in the direction sought with a large enough effect; inconclusive means small, poorly fitted or top-dose-only effect; inactive means flat fitted curve, though single readings scatter. Potencies beside an inconclusive call are fits to weak or partial responses and may not hold up.

Target: DNA dC->dU-editing enzyme APOBEC-3G (Homo sapiens) (UniProt Q9HC16)
Assay: qHTS for Inhibitors of Vif-A3G Interactions: qHTS; further: nearly all actives have a fitted effect of over 60% in size;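 on activity, negative = active: hits raise eYFP signal because A3G escapes Vif-driven loss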
Conditions: HeLa A3G-eYFP + Vif (tagged APOBEC3G with the HIV-1 protein that degrades it), YFP fluorescence, overnight; series mostly up to 46.1 µM; activity, negative = active: at the top concentration
How it was run: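 HeLa cells stably expressing Vif and C-terminally eYFP-tagged A3G, seeded overnight at 37 deg C, then exposed to compound by pintool overnight at 37 deg C. Rise in yellow fluorescence (Ex 488/Em 500-530, Acumen) marks blocked Vif-driven A3G degradation.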
On the % scale 0 is the no-effect control and ±100 the full control effect; potency means the concentration at half of the fitted maximal effect; tags describe the fitted curve by direction and shape.

Sequence of UniProt Q9HC16 (Q9HC16 whole entry, looked up): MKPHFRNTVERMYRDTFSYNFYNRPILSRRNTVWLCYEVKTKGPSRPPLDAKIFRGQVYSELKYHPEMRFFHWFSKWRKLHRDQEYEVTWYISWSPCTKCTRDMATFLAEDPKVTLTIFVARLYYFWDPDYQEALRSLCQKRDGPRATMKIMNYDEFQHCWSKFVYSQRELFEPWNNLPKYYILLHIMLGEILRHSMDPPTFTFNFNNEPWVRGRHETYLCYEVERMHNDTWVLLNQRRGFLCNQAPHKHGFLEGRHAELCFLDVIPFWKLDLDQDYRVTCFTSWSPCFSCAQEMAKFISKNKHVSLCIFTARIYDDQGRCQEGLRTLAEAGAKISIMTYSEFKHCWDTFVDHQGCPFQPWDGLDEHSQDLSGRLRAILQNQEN

SMILES | Potency | activity, negative = active
COc1ccc(NS(=O)(=O)c2cc(NC(=O)c3ccc(=O)[nH]n3)ccc2C)cc1 | inconclusive: 5.62 µM [inhibitor, full curve, poor fit] | 
O=C(NC1CC2CCCC(C1)N2S(=O)(=O)c1ccccc1)c1ccccc1 (configuration not stated) |  | inactive: 3.37%
C=CCn1c(C)cc(C(=O)CSc2nnc(NCc3ccccc3)s2)c1C | inconclusive: 3.55 µM [inhibitor, full curve, poor fit] | 
CCOC(=O)COc1ccc2nsnc2c1Cl |  | inactive: 2.42%
CC1(C(=O)NCc2ccco2)Cc2c(-c3ccc4c(c3)OCO4)ccnc2O1 (configuration not stated) | inconclusive: 0.708 µM [inhibitor, full curve] | 
O=C(Cn1ccc2ccccc21)Nc1ccc2c(c1)OCO2 |  | inactive: -8.25%
O=C(C[n+]1cccc(Cl)c1)c1ccc(O)c(O)c1 |  | inactive: -1.07%
CCOCCCNC(=O)c1cc2sc(Cl)cc2n1CC | inconclusive: 35.5 µM [inhibitor, single point] | 
Fc1ccccc1Cn1nnc2c(-n3ccnc3)ncnc21 |  | inactive: 0.0183%
CCc1ccc(CNC(=O)Cc2ccc(NC(=O)C3=C(C)OCCS3)cc2)cc1 | inconclusive: 0.631 µM [inhibitor, full curve, poor fit] | 
COc1ccc2c(c1)c(=O)c(C(=O)c1ccccc1)cn2Cc1ccc(C)cc1 | inconclusive: 7.94 µM [inhibitor, partial curve, poor fit] | 
Cc1ccc(/C=C/C(=O)c2c(C)nc3ccccn23)cc1 |  | inactive: -21.8%
COc1ccc(N2CCN(S(=O)(=O)c3ccc(-c4cc(C(F)(F)F)on4)s3)CC2)cc1 |  | inactive: -0.361%
O=C(C=Cc1ccccc1)c1cc(Br)ccc1O |  | inactive: -5.29%
CC(=O)Nc1ccc(N/C=C/C(=O)c2ccc(Cl)cc2)cc1 |  | inactive: 0.191%
O=C1CN(C(=O)COC(=O)/C=C/c2ccco2)c2ccccc2N1 |  | inactive: -0.584%
CCOC(=O)c1cc(-c2ccc3c(c2)OCCO3)nc2c1c(C)nn2CCC#N |  | inactive: -1.17%
O=C(NC1(C(F)(F)F)Oc2ccccc2O1)N1CCCC1 | inconclusive: 31.6 µM [inhibitor, single point] | 
Cc1ccc(/C=N/NC(=O)c2ccc3ccccc3c2)s1 | inconclusive: 1.78 µM [inhibitor, full curve, poor fit] | 
Cc1ccc(-c2[nH]c3ccccc3c2C(C[N+](=O)[O-])c2ccco2)cc1 (configuration not stated) | inconclusive: 15.8 µM [inhibitor, single point] | 
CCCc1oc2ccc(NS(=O)(=O)c3ccc(OC)cc3)cc2c1C(=O)OCC | inconclusive: 0.562 µM [inhibitor, full curve, poor fit] | 
COc1ccccc1NC(=O)c1ccc(C(=O)Nc2ccccc2OC)nc1 | inconclusive: 3.16 µM [inhibitor, single point] | 
